Source: article PMC11603075 (Communications Biology, 2024)

Molecular target: T1, KDM4E (Homo sapiens, UniProt B2RXH2)
T1 construct: KDM4E1–337; made in house; host or cells: E. coli
T1 sequence (B2RXH2 1-337): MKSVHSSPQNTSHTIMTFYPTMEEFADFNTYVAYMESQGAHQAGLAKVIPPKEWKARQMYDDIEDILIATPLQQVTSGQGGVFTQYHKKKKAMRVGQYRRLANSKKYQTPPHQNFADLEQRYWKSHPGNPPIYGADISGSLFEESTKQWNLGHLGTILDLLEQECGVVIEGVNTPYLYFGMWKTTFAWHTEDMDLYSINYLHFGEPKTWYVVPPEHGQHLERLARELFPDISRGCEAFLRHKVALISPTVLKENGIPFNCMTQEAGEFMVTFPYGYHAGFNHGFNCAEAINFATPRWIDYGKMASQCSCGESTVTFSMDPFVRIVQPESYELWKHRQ
Experiment: KDM, RDM and hydroxylation (+16 Da) activities of KDM4E with histone peptide variants by MS
Assay type: biochemical
Conditions: MALDI–TOF or LC–MS, n = 3
Method: Fig. 3 KDM4E-catalysed hydroxylation occurs at Arg-20 on histone H2a peptide. a LC–MS/MS analysis of H2a(1–20) after KDM4E treatment. Two potential hydroxylation sites, R17 and R20, were identified, with the latter more likely (Supplementary Fig. 9). b Peptide variant studies support Arg-20 hydroxylation; specific activities: H2a(1–20), 0.65 nmol min^−1 mg^−1 SD: 0.073; H2a(1–20) with a C-terminal carboxylic acid (indicated with an -OH), no activity; H2a(1–20)R20A, no activity; H2a(1–20)R20K*, no activity; H2a(1–20)R20Kme3*, 0.44 nmol min^−1 mg^−1 SD: 0.04; H2a(1–20)R3me2a*, 0.51 nmol min^−1 mg^−1 SD: 0.05; H2a(1–20)R3A, 0.37 nmol min^−1 mg^−1 SD: 0.002; H2a(1–21)*, 0.65 nmol min^−1 mg^−1 SD 0.02; H2a(1–25, 0.35 nmol min^−1 mg^−1 SD: 0.044; and H2a(10–29), 0.02 nmol min^−1 mg^−1 SD: 0.013. Measurements employed MALDI–TOF MS except when labelled with*, which employed LC–MS (Supplementary Fig. 10 for representative MS data). n = 3 independent assays. c KDM, RDM and hydroxylation (+16 Da) activities of KDM4E are sequence and context dependent. Histone peptides (H2a, H3, H4) and variants (wild type residue in red, replaced with either K, Kme3, R or Rme2a) were incubated with KDM4E and analysed on MALDI–TOF MS. KDM, RDM and hydroxylation (+16 Da) were detected in some but not all peptides (Supplementary Fig. 10 for representative MS data). (−) No mass changes observed. n = 3 independent assays. See Supplementary Table 6 for conditions. TEXT PRINTED IN THE PICTURE: (c) H2a: K/R replacement K: -; K/R replacement Kme3: KDM/ROH; K/R replacement R: ROH; K/R replacement Rme2a: KDM/ROH | (c) H3: K/R replacement K: -; K/R replacement Kme3: KDM; K/R replacement R: -; K/R replacement Rme2a: RDM | (c) H4: K/R replacement K: -; K/R replacement Kme3: -; K/R replacement R: -; K/R replacement Rme2a: RDM DOUBTS OF THE COPYIST ABOUT THIS PICTURE: Panel c: the table cells are qualitative activity classes (KDM, RDM, ROH, -) for peptide variants, not numbers; it is uncertain whether they count as results. / Panel b: the bar chart prints no values beside the bars, so nothing was taken from it.
MS-based screening assays with peptides and calf thymus histones were as reported; see Supplementary Table 6 for conditions. Time course assays were based on reported procedures. In brief, equal volumes of the enzyme and substrate solutions were combined to initiate the reaction; 10 µL of 2% (v/v) formic acid (HCOOH) in ddH2O or 100% methanol was added to 10 µL of the reaction mixture to quench reactions at different time points. Unless otherwise stated, time course assays were carried out in triplicate. In some cases, LC–MS was used instead of MALDI-TOF MS to avoid a MALDI matrix induced artefact with the hydroxylated product (Supplementary Fig. 16).
Supplementary Figure 10 KDM, RDM and hydroxylation (+16 Da) activities of KDM4E are sequence and context dependent. Representative MALDI–TOF or LC –MS spectra for incubation of KDM4E with: (a) H 2 a( 1–20) w it h a C -terminal carboxylic acid (indicated by -OH ) , (b) H2 a( 1–20 )R2 0A, and (c) H2 a( 1–20 )R2 0K […]
and (p) H4 (1 –21)R3Kme3 showing no mass shift s; Charge st at e of labelled ions: [M + H] 5+ for (a), (c–e), and (g), and [MH] + for (b), (f) a nd (h–p). *L ow le v e l MA L D I–TOF MS peaks indicating ~10% product formation. n = 3 (independent assays). Y-axis: relative abundance (%). See Supplem ent ary T able 6 for assay condit ions.
See Figure 3b for specific activities of H2a peptide panel and Figure 3c for summary of K/R subst it ut ions of wild type H2a, H3 and H4 sequences. The –14 Da peak indicated in (f) a n d (h) is due to a MALDI–T O F MS derived modification – se e Supplementary Figure 16.
[ E nz ym e] [Peptide] [2OG] [Ascorbate] [(NH4)2F e(S O4)2] [TCEP] Buffer pH7.5 Enzyme Cognate substrate (mM) (mM) (mM) (mM) (mM) (mM) [HE PE S]
Supplementary Table 6 Summary of MS assay conditions for substrate screening. These conditions enabled efficient turnover of established substrates. […]

AR T KQ T AR K[ me 3] ST GGKAPR KQ L A [H3(1–21)K9me3, reference compound]
−14 Da mass shift (demethylation): multiple

Ac - SGR [ me 2a ] GKQ GGKAR AKAKT R SSR [H2a(1–20)R3me2a, H2a(1–20)R3me2a without a biotin tag]
+16 Da mass shift (hydroxylation): +16 Da mass
−14 Da mass shift (demethylation): multiple −14 Da mass
